The whole screen tested about 310,000 compounds, of which about 14,000 (4.5%) showed an effect of 50% or more. The effect is printed as a negative number. The list shows a part of the results.
Molecular target: human ether-à-go-go-related gene (hERG) potassium channel (human, UniProt Q12809)
Assay: primary screen, population patch clamp on CHO cells stably expressing hERG
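Further: peak tail current of the secondary pulse compared with the same well before compound.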

Chain of human ether-à-go-go-related gene (hERG) potassium channel (Q12809 whole entry, looked up): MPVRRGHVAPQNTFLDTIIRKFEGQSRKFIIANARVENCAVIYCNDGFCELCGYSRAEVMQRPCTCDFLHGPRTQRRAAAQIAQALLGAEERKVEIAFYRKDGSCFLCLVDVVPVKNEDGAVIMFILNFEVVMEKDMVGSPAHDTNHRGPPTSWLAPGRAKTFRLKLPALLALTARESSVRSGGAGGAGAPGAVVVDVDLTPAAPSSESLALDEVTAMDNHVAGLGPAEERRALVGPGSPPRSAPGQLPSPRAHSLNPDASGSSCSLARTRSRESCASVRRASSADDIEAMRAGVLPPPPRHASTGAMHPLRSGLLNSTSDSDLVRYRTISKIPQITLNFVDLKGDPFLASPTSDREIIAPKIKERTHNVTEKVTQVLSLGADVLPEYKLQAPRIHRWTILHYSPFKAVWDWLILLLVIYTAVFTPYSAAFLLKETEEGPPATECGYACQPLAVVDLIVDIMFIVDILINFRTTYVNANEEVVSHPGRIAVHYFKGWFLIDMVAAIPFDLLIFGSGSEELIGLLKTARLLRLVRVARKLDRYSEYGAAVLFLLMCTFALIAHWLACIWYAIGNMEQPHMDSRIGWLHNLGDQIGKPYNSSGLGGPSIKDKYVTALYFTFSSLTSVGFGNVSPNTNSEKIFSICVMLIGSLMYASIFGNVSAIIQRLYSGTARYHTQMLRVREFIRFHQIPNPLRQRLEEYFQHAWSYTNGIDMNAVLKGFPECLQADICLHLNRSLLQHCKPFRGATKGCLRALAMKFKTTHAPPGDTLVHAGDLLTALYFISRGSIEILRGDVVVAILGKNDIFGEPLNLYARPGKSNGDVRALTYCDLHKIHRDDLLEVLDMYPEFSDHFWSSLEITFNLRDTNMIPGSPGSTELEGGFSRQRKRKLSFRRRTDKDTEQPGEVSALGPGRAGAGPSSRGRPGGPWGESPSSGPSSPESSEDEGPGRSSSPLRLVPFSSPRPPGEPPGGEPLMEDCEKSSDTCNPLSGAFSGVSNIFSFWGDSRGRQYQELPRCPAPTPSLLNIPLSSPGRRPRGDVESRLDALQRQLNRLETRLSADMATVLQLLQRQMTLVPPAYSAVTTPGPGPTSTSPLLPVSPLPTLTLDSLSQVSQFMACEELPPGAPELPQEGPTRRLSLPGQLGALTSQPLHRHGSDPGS

Row | SMILES | hERG current change (%, negative = inhibition) at 10uM [%]
1 | COc1ccc(Br)cc1CNCCSc1nnnn1C.Cl | -18.4
2 | O=C(Cn1cc2c(n1)CCCC2)NC1CCN(Cc2ccccc2)CC1 | -8.32
3 | Cc1nc(/C(=N/O)C(N)=O)cs1 | 17.7
4 | CCCCOc1ccccc1Cn1c(=O)oc2ccc(C)cc21 | 3.83
5 | CC(C)c1nnc(NC(=O)CCN2C(=O)c3ccccc3C2=O)s1 | 10.4
6 | C1=CC2CC1CC2CN1CCN(Cc2ccccc2)CC1.O=C(O)C(=O)O (centres unmarked) | -11.6
7 | COc1ccc(OC)c(C2=NOC(C(=O)NCc3ccccn3)C2)c1 (centres unmarked) | 2.95
8 | O=C(CCN1CCc2ccccc2C1)Nc1cccc(F)c1 | -34
9 | O=C(c1ccco1)N1CCN(C(c2ccc(F)cc2)c2nnnn2CC2CCCO2)CC1 (centres unmarked) | -13.7
10 | CC(=O)c1cc(NC(=O)c2ccccc2)c(=O)oc1/C=C/N(C)C | -12.1
11 | COc1ccc(C2=CSC3=NCCN23)cc1[N+](=O)[O-] | -26.1
12 | O=CN(c1ccccc1)c1ccc2ccccc2c1 | -10.4
13 | O=C(NCC(=O)N1CCN(S(=O)(=O)c2cccs2)CC1)c1ccc(Cl)cc1 | -47.9
14 | O=C(Nc1nc2ccccc2s1)C1CC(=O)N(c2ccc(Br)cc2)C1 (centres unmarked) | 1.01
15 | O=C(c1ccc(S(=O)(=O)c2cccc(Cl)c2)c([N+](=O)[O-])c1)N1CCN(Cc2ccccc2)CC1 | -1.62
16 | COc1ccccc1NS(=O)(=O)c1cccc(C(=O)N/N=C(\C)c2ccc(-n3ccnc3)cc2)c1 | -38.8
17 | Cc1ccc(C(=O)NC(=O)CSc2ncccc2C(=O)O)cc1 | 11.5
18 | Br.CC(=O)c1sc(N/N=C2\CC3CCC2(C)C3(C)C)nc1C (centres unmarked) | 18.4
19 | COc1cc(/C=C2\SC(=N)N(c3ccc(F)cc3)C2=O)ccc1O | 24.8
20 | CC(=O)c1cccc(OCC(O)CNCCOc2ccc(C)cc2)c1 (centres unmarked) | -36.5
21 | Cc1nonc1C(=O)N1CCCC(Nc2ccc(C(C)C)cc2)C1 (centres unmarked) | -14.2
22 | CCc1nnc(NC(=O)CSCc2cc(=O)n3nc(C)sc3n2)s1 | 23.6
23 | Cc1cc(NC(=O)C2CCCCC2)ncc1NC(=O)c1ccccn1 | 8.6

Row | SMILES | hERG current change (%, negative = inhibition) at 10uM [%]
24 | Cc1ccc(S(=O)(=O)Nc2c(C)nc3nc(C)[nH]n3c2=O)c(C)c1 | 10.3
25 | CCN(CC)S(=O)(=O)c1cc(OC)c(C)cc1C | -5.58
26 | CC(=O)Nc1ccc(NC(=O)C2c3ccccc3Oc3ccccc32)cc1 | 5.31
27 | COc1cccc(CNC(=O)COC(=O)c2cccc(S(=O)(=O)N3CCN(C(C)=O)CC3)c2)c1 | -9.4
28 | O=C(CSc1nnc(-c2ccco2)n1Cc1ccccc1)c1ccc(F)cc1 | -45.7
29 | O=C1CS/C(=N/N=C/c2cccs2)N1 | -20.8
30 | CCOC(=O)Cc1csc(NC(=O)CSc2nc(N)c3c(C)c(C)sc3n2)n1 | -4.9
31 | CC(=O)c1cccc(OCc2cc(C(=O)N(C)Cc3cnccn3)no2)c1 | 12.8
32 | CCOc1ccccc1NC(=S)N1CCN(c2ccccc2F)CC1 | 6.51
33 | O=C(O)C(=O)O.O=S(=O)(c1ccc2ccccc2c1)N1CCN(Cc2ccccn2)CC1 | -1.99
34 | CC(C)(C)NC(=O)CN(C(=O)CS(=O)CC(=O)Nc1ccc(F)cc1)c1ccc(F)c(Cl)c1 (centres unmarked) | -9.22
35 | CC(C)CC1(C)NC(=O)N(CC(=O)NC(=O)Nc2ccc3c(c2)OCCO3)C1=O (centres unmarked) | -6.26
36 | Cc1onc(-c2ccccc2Cl)c1C(=O)Nc1nn[nH]n1 | 6.51
37 | Cc1cc(C)c(NC(=O)/C=C\C(=O)O)c(Cl)c1 | -3.75
38 | O=C(COC(=O)CNC(=O)c1ccco1)Nc1ccc(Cl)cn1 | -17.8
39 | CCCOC(=O)c1ccc(NC(=O)CC(C)(C)C)cc1 | -11.1
40 | O=C1N=C(N2CCCC2)S/C1=C\c1cn[nH]c1-c1ccccc1 | -4.48
41 | CNC(=O)CCn1nc(-c2ccc(C)cc2)c2ccccc2c1=O | -8.28
42 | CCc1nc(SCC(=O)NNC(=O)C2CCCCC2)c2ccccc2n1 | -3.6
43 | COc1ccc(CN2CCN(Cc3ccccc3)CC2)c(OC)c1 | -69.9
44 | Cc1ccc(-n2nnnc2-c2cccnc2)cc1 | -8.25
45 | Cc1ccc(C(=O)Nn2cnnc2)cc1S(=O)(=O)N1CCOCC1 | -1.94
46 | Cc1ccc(Oc2nc3c(c(=O)n(C)c(=O)n3C)n2C)cc1C | -7.1

Row | SMILES | hERG current change (%, negative = inhibition) at 10uM [%]
47 | CC[C@@]1(c2cccc(C)c2)C(=O)N(C(=O)OC)N1C(=O)OC | 21.8
48 | Nc1ccc(S(=O)(=O)Nc2nccc(/C=C/c3ccc(Br)s3)n2)cc1 | 13.7
49 | O=C(c1cccs1)n1nc(-c2ccccc2)nc1NCc1ccco1 | -9.9
50 | O=C(COc1cccc2ccccc12)Nc1nc2ccccc2[nH]1 | 7.7
51 | COCCn1ccc2c(OCC(=O)Nc3cccc(NC(C)=O)c3)cccc2c1=O | 1.01
52 | Cc1nc(-c2ccccc2)sc1C1(C)CC(c2c(Cl)cccc2Cl)=NO1 (centres unmarked) | 13.1
53 | O=C(COc1ccc2c(c1)OCO2)Nc1ccccc1F | 5.18
54 | Br.N=c1c2c(n(Cc3ccc(Br)cc3)c3c1CCC3)CCCC2 | -21.5
55 | COc1cc(C(c2c(C)[nH][nH]c2=O)c2c(C)[nH][nH]c2=O)cc(Br)c1OC | 5.3
56 | CC(NC(=O)NC(=O)c1cccc([N+](=O)[O-])c1)C1CC1 (centres unmarked) | 10.7
57 | COc1cccc(CN2CCCC(C(=O)N3CCCCC3)C2)c1OC.O=C(O)C(=O)O (centres unmarked) | -26.3
58 | Cc1noc(C)c1C(=O)NCCCN1CCCC1=O | 4.95
59 | O=C(CCSCc1cccc(Cl)c1)NCCc1ccc(Cl)cc1 | 4.09
60 | CCOC(=O)C1CCN(Cc2nc3ccccc3c(=O)n2-c2ccc(F)cc2)CC1 | -24.9
61 | COc1ccc(NC(=O)C(NC(C)=O)C(=O)NCc2ccccc2OC)cc1 (centres unmarked) | -1.36
62 | CCOC(=O)C1CCCN(Cc2nc(N)nc(Nc3ccccc3OC)n2)C1 (centres unmarked) | -70.8
63 | O=C(Nc1cc(Cl)ccc1N1CCOCC1)c1ccco1 | -2.8
64 | O=C(/C=C/c1ccco1)Nc1ccc(Oc2ccccc2)cc1 | -5.74
65 | O=C1CC(Nc2ccccc2)C(=O)N1Cc1ccccc1 (centres unmarked) | 3.61
66 | O=C1CN(c2nnnn2-c2ccccc2)CCN1 | -6.89
67 | Cc1[nH]n(-c2ccccc2)c(=O)c1-c1cccc(Cl)c1 | 31.7
68 | CCCn1c2ccc(F)cc2c2nnc(NN)nc21 | -1.94
69 | Cc1cccc(N2CCN(c3ccc(NC(=O)/C=C(/C(=O)O)c4ccccc4)cc3)CC2)c1 | 15.7

Row | SMILES | hERG current change (%, negative = inhibition) at 10uM [%]
70 | COc1ccc([N+](=O)[O-])cc1NC(=O)C(C)N1CCN(C(=O)c2ccco2)CC1 (centres unmarked) | -7.41
71 | Cc1cccc(Nc2nc(C)nc3c2oc2ccccc23)c1.Cl | -7.37
72 | C=CCn1c(C)cc(C(=O)CSc2ccc(NC(C)=O)cc2)c1C | -0.616
73 | COC(=O)CNC(=O)CNC(=O)c1nn(-c2ccc(OC)c(Cl)c2)c(=O)c2ccccc12 | 15.7
74 | O=C(/C=C/c1ccc(Cl)c(Cl)c1)N1CCc2ccccc21 | 6.26
75 | CC(C)CNC(=S)NC(=O)c1ccc(F)cc1 | 5.45
76 | COc1ccc(-c2noc(C(C)NC(=O)c3ccco3)n2)cc1OC (centres unmarked) | 8.32
77 | Cc1ccc(NC2SC(=O)N(Cc3cccc(C(=O)O)c3)C2=O)c(C)c1 (centres unmarked) | 14.2
78 | COc1ccc(-c2csc3nc(C)nc(N4CCN(C(C)=O)CC4)c23)cc1OC | -4.58
79 | CCOc1nc2cnccc2n(CC(=O)Nc2cccc(C)c2)c1=O | 13.3
80 | Cc1cc(C)c(S(=O)(=O)Nc2ccc3[nH]c(=O)[nH]c3c2)c(C)c1 | 2.9
81 | O=C(CN(C(=O)CCC(=O)Nc1nccs1)c1cccc(F)c1)NCc1ccc2c(c1)OCO2 | 11.1
82 | O=C(Nc1ccccc1)N(Cc1ccccc1)C1=NCCS1 | 5.37
83 | CCOC(=O)C1CCN(c2cc(=O)n(C3CCCCC3)c(=O)[nH]2)CC1 | 0.521
84 | Cc1nc2nc(SCC(=O)NCc3ccco3)nn2c(C)c1Cc1c(F)cccc1Cl | -49.3
85 | CCCn1cnc2cc(NCc3cccc(OC)c3O)ccc21 | -29.3
86 | O=C(CCS(=O)(=O)c1ccccc1Cl)NCCC1=CCCCC1 | -0.865
87 | Cc1cc(NS(=O)(=O)c2ccc(NC(=O)CCCOc3cccc(C)c3C)cc2)no1 | 7.68
88 | CCc1ccc(NC(=O)CCC(=O)c2ccc(C)cc2)cc1 | 44.7
89 | COc1ccccc1C1=NOC(C)(c2sc(-c3ccccc3)nc2C)C1 (centres unmarked) | 21.7

Source: publication PMC4336329 (PLoS ONE, 2015)
